Data on 72 molecules can be found in PubChem BioAssay AID1240 (Sanford-Burnham Center for Chemical Genomics, 2008).

Screen size: about 50,000 compounds; about 800 (1.6%) showed an effect of 50% or more. This is one part of the list.

The target of this assay is Bcl-2-like protein 10 (Homo sapiens) (UniProt Q9HD36). Nature of the assay: TR3 peptide-Bcl-B binding displacers, biochemical primary FP assay, phenotype converters (AID 1240).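 Further: 0% = Bcl-B with tracer peptide and DMSO and 100% = tracer peptide lacking Bcl-B.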 To be noted: GST-Bcl-B / FITC-TR3 peptide fluorescence polarization; stronger effect = higher value; compound at 3.75 mg/L.
Sequence of UniProt Q9HD36 (Q9HD36 whole entry, looked up): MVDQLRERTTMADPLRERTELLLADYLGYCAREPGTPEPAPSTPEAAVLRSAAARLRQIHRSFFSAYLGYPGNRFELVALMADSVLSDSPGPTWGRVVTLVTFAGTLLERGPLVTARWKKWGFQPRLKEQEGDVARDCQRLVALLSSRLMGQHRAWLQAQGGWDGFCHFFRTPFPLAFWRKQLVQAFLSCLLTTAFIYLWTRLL
Regarding `COc1ccc(/C=N/N(C)CCN(C)/N=C/c2ccc(OC)cc2)cc1`, the displacement is 1.2%.

On to `COc1ccccc1NC(=O)C(=O)NCc1ccccc1`, for which the displacement came out at 11.6%.

As to `CC(/C=N/N1CCN(Cc2ccc(C)cc2)CC1)=C\c1ccco1`, the displacement came to 9.8%.

`CC1CCOP(=O)(C(Nc2ccc([N+](=O)[O-])cc2)c2ccc(Br)cc2)O1` (configuration not stated): the displacement was -15.1%.

With `Cc1[nH]n(-c2ccccc2)c(=O)c1/C=N/Nc1ccccn1`, the displacement was -21.3%.

For the molecule `CCOC(=O)CC1CSc2nc3sc(C)c(C)c3c(=O)n21` (configuration not stated), the displacement was -9.2%.

Regarding `O=C(Nc1cccnc1)c1ccc(-c2ccc(Br)cc2)o1`, the displacement is -5.1%.

Take `O=C(NC1CCCCCC1)c1ccc(Cl)c([N+](=O)[O-])c1`: the displacement is -8%.

For `O=C(c1ccccc1F)N1CCN(C2CC3CCC2C3)CC1` (configuration not stated), the displacement is -2.6%.

Regarding `COC(=O)C1=CN(Cc2cccs2)C=C(C(=O)OC)C1c1ccc(C(F)(F)F)cc1`, the displacement worked out at 0%.

Consider `O=C(Nc1cccc(-c2nc3ccccc3s2)c1)c1cccs1`, for which the displacement amounted to 6.6%.

As to `CC(=O)N(C)CP(=O)(O)CCc1ccccc1`, the displacement was determined as 15.4%.

As to `O=[N+]([O-])c1cc(C(F)(F)F)ccc1Sc1ccccn1`, the displacement is -10.8%.

As for `COc1ccc(-c2cc(C(=O)Nc3c(C)cccc3C)c3ccccc3n2)cc1`, the displacement was determined as 11.8%.

As for `Cc1ccc(S(=O)(=O)N2CCN(Cc3ccccn3)CC2)cc1`, the displacement was -20.2%.

Take `O=C(NC12CC3CC(CC(C3)C1)C2)C1CC(=O)N(c2ccccc2)C1` (configuration not stated): the displacement came out at 10.8%.

Turning to `CC(C)C(NS(=O)(=O)c1ccccc1[N+](=O)[O-])C(=O)NC(C)(C)C` (configuration not stated), the displacement stood at 7.1%.

Turning to `O=C1C(Cc2ccccc2)S/C(=N/N=C/c2ccco2)N1c1ccccc1` (configuration not stated), the displacement was determined as 8.7%.

As to `COc1ccc(/C=C/C(=O)Nc2ccc(N3CCOCC3)cc2)cc1OC`, the displacement is 0.9%.

On to `CCN(CC)CCCCCOc1ccc(OC)cc1`, for which the displacement was 3.7%.

`Cc1c(Cl)cccc1-c1ccc(C(=O)Nc2cccc(NC(=O)c3cccc(Cl)c3)c2)o1`: the displacement was determined as 1.8%.

As to `c1ccc(-n2c(SCc3cccc4ccccc34)nnc2-c2ccco2)cc1`, the displacement was -5.3%.

In the case of `CCOC(=O)c1c(C)nn(Cc2ccccc2)c1N`, the displacement is 1.3%.

As to `COc1ccc(CNc2ccc3c(c2)ncn3C)cc1`, the displacement is -1%.

Take `CCOC(=O)c1c(N2CCOCC2)nc2ccc([N+](=O)[O-])cc2c1-c1ccccc1`: the displacement is 10.6%.

`CC1=C(C(=O)OC2CCCC2)C(c2ccccc2Cl)C2=C(CC(C)(C)CC2=O)N1` (configuration not stated): the displacement came to 6.1%.

As for `COCCOC(=O)C1=C(C)NC(=O)CC1c1cccc(Cl)c1` (configuration not stated), the displacement was -9.8%.

For `Clc1ccc(-n2ncnc2-c2ccc(Br)cc2)cc1`, the displacement was -10.1%.

Regarding `O=C(COc1ccc2ccccc2c1)Nc1ccc(S(=O)(=O)Nc2nccs2)cc1`, the displacement is -11.8%.

In the case of `COc1ccccc1NCN1C(=O)S/C(=C\c2ccc(C(C)C)cc2)C1=O`, the displacement worked out at 14.7%.

Take `CCOC(=O)C1=C(O)/C(=C/c2cc(C)n(-c3cccc(Br)c3)c2C)N=C1C`: the displacement worked out at 22.6%.

With `O=C(O)C(Cc1ccccc1)P(=O)(O)CN1CCOCC1` (configuration not stated), the displacement is 6.4%.

On to `Cc1onc(-c2ccccc2Cl)c1C(=O)N[C@@H](C)c1ccccc1`, for which the displacement turned out to be 5.1%.

As to `CC(Oc1cccc(Cl)c1)C(=O)N1CCN(c2ccc(Cl)cc2)CC1` (configuration not stated), the displacement was -11.8%.

For `Cc1cc(NS(=O)(=O)c2ccc(NC(=O)c3ccco3)cc2)nc(C)n1`, the displacement is -10.4%.

On to `C=C(C)COc1ccc2c(-c3ccccc3)cc(=O)oc2c1OCC(=C)C`, for which the displacement is -1.9%.

With `CCOc1ccccc1N(CC(N)=O)S(=O)(=O)c1ccccc1`, the displacement was -5.1%.

Regarding `N#C/C(=C\c1ccc(-c2ccc(Cl)cc2)o1)C(N)=O`, the displacement is 3.9%.

For `COc1ccc(NC(=O)/C=C/c2ccco2)cc1OC`, the displacement is -11.8%.

With `Cc1cc(=O)[nH]c2ccc([N+](=O)[O-])cc12`, the displacement stood at 27.7%.

Turning to `CN(C)CC(=O)C12CC3CCC(CC(C3)C1)C2`, the displacement was -4.6%.

For the molecule `O=C1NN(c2ccc(Cl)c(Cl)c2)C(=O)/C1=C/c1ccc(O)cc1O`, the displacement was 24%.

As for `CC(C)c1ccc(NC(=O)c2ccc(CN3CCc4ccccc4C3)cc2)cc1`, the displacement came out at 16%.

As to `O=C(CC1Sc2ccccc2NC1=O)Nc1cccc(Cl)c1` (configuration not stated), the displacement was -0.3%.

Regarding `CCOc1ccc(/C=C2\C(=O)NC(=O)N(c3cccc(Cl)c3)C2=O)cc1Cl`, the displacement turned out to be 6.2%.

In the case of `COC(=O)C1=CNC=C(C(=O)OC)C1c1cc(OC)c(Br)cc1OC`, the displacement was found to be 0.6%.

Consider `O=C(CSc1nc2ccccc2o1)Nc1ccccc1`, for which the displacement is -9%.

With `O=C(Nc1ccc(OCc2ccccc2)cc1)Nc1cccc(Cl)c1`, the displacement is -0.6%.

`Cc1ccc(OCC(=O)N/N=C\c2ccc(OC(=O)c3ccc(Br)cc3)cc2)cc1`: the displacement came to 5%.

Take `CC1=C(C(=O)Nc2ccc(C)cc2)C(c2ccccc2Br)NC(=S)N1` (configuration not stated): the displacement was determined as 84.9%.

With `O=C(Oc1ccc(/C=C2/SC(=S)N(c3ccccc3)C2=O)cc1)c1ccccc1`, the displacement worked out at 13.7%.

`CC1(C)CC(NC(=O)c2ccc(I)cc2)CC(C)(C)N1`: the displacement was -0.4%.

`CC(=O)Nc1sc2c(c1C(=O)Nc1ccccc1C)CCC2`: the displacement was 16.9%.

Take `O=C(N1CCOCC1)N1CCN(c2ccccc2)CC1`: the displacement was 7.3%.

`O=C(/C(=C(\O)c1ccccc1)c1nc2ccccc2[nH]1)c1ccc([N+](=O)[O-])cc1`: the displacement came out at 12.5%.

With `CC1(C)CC(=NN=C2CC(C)(C)NC(C)(C)C2)CC(C)(C)N1`, the displacement worked out at 1.1%.

Consider `O=C(N=c1ccccn1O)C(O)(c1ccccc1)c1ccccc1`, for which the displacement was -28.4%.

Take `Cc1cc(Cl)ccc1NC1=CC(=O)CC(c2ccccc2)C1` (configuration not stated): the displacement was -8.5%.

Consider `C=C(Br)Cn1c(SCC)nc2ccccc21`, for which the displacement is -4.2%.

Turning to `COc1ccc(Cl)cc1NC(=O)c1c(O)c2ccccc2n(CC(C)C)c1=O`, the displacement is -2.8%.

Regarding `CCOC(=O)c1c(NC(=O)c2cccc(OC)c2)sc2c1CCC2`, the displacement was determined as 11%.

With `COc1ccccc1N1CCN(C(=O)C2CCCO2)CC1` (configuration not stated), the displacement worked out at 5.4%.

Take `O=C(CSc1nc2ccccc2s1)NNC(=S)NC1CCCCC1`: the displacement was -8.9%.

With `CC(C)c1ccccc1NS(=O)(=O)c1ccc(Cl)cc1`, the displacement is -2.6%.

Regarding `CC(C)NC(=O)C1CC(=O)N(c2ccc(Br)cc2)C1` (configuration not stated), the displacement was found to be 2.9%.

With `CC(C)c1cc(NS(=O)(=O)c2ccccc2N)cc(C(C)C)c1O`, the displacement amounted to 9.7%.

Take `COc1ccc(C2NN=C(c3ccc(C)cc3)S2)cc1OC` (configuration not stated): the displacement came out at 2.5%.

`NCC(O)(c1ccc(Cl)cc1)c1ccc(Cl)cc1`: the displacement was -3.8%.

As to `c1coc(-c2nc3c(ccc4ccccc43)[nH]2)c1`, the displacement was -1.8%.

Turning to `O=[N+]([O-])c1ccc(N2N=C(c3ccc(O)cc3)CC2c2ccc(F)cc2)cc1` (configuration not stated), the displacement turned out to be 0%.

Regarding `CCN(c1ccccc1)S(=O)(=O)c1ccc(OC)cc1`, the displacement was -10.7%.

Take `CCOC(=O)Nc1nnc(CC(C)C)s1`: the displacement is -9%.
